Assay results published in PubChem BioAssay AID624296 (National Center for Advancing Translational Sciences (NCATS), 2012).
In all, about 350,000 compounds went through this assay and about 9,900 (2.8%) were called active. The inconclusive results got no clear call from the source; some entries with a clear call stand among them for comparison. Calls follow the shape of the dose curve; as a rule, active = well fitted activation curve with a large enough effect; inconclusive = small, poorly fitted or top-dose-only effect; inactive = no such curve, though single readings can be large or run the other way. Potencies of inconclusive entries are left out as doubtful fits.

experiment: A quantitative high throughput screen for small molecules that induce DNA re-replication in MCF 10a normal breast cells.; also: nearly all actives have a fitted effect of over 50% in size; settings: MCF 10A DNA re-replication, Hoechst nuclear intensity, 48 h; series mostly up to 46.1 µM
Potency is read from the fitted curve at half-maximal effect; tags tell the direction and shape of the fitted curve.

SMILES | Potency
COc1ccc(CN(C)Cc2nc3scc(-c4ccccc4)c3c(=O)[nH]2)cc1OC | inconclusive [activator, single point]
O=C(CCc1ccc(S(=O)(=O)N2CCOCC2)cc1)OCC(=O)c1ccccc1F | inactive
O=C(CSc1nc2[nH]ncc2c(=O)[nH]1)Nc1ccc(Cl)cc1 | inactive
Cc1ccc2nc3c(cc(C(=O)NCCCn4ccnc4)n3C)c(=O)n2c1 | active: 14.6 µM
Cc1nc(C)n(CC(C)C(=O)N2CCN(S(=O)(=O)c3ccccc3)CC2)n1 (centres undefined) | inactive
CCOc1ccc(OCC)c(NC(=O)CN(c2ccc(C)cc2)S(=O)(=O)c2c(C)noc2C)c1 | inactive
CCC1=NN(C(=O)C(=O)Nc2ccccc2OC)C(O)(C(F)(F)F)C1 (centres undefined) | inconclusive [activator, partial curve, poor fit]
N#C/C(=C/c1ccc(N2CCOCC2)o1)c1ccc(Br)cc1 | active: 5.8 µM
CCCCCCCCCCCCCCC[C@H](O)[C@H](N)CO | inconclusive [activator, single point]
CCC1=C2CC[C@H]3C(=O)N(CC)C(=O)[C@H]3[C@H]2[C@@]2(Cc3ccccc3)C(=NCc3ccccc3)OC(=O)N2C1=O | inconclusive [activator, full curve, poor fit]
CC(C)(C)NC(=O)NC(=O)CN1CCN(c2cccc(Cl)c2)CC1 | inactive
O=c1[nH]c(=O)n([C@@H]2C[C@H](O)[C@H](CO)O2)cc1I | inactive
O=C(C1=COCCO1)N1CCN(S(=O)(=O)c2cccc(F)c2)CC1 | inactive
O=C(Nc1ccc2c(c1)OCO2)Nc1cnccn1 | inconclusive [activator, single point]
CN=C(C)/C(C(=O)OC)=C(/O)c1ccc(Cl)cc1Cl | inconclusive [activator, single point]
CC(C)Cn1cnc2c1c(=O)n(C)c(=O)n2C | inconclusive [activator, full curve, poor fit]
Cc1nnc(SCC(=O)N2CCC(Cc3ccccc3)CC2)n(N)c1=O | inactive
Cc1ccc(S(=O)(=O)/N=C2\C=C(Nc3cccc(C(=O)O)c3)C(=O)c3ccccc32)c(C)c1 | active: 6.51 µM
COc1ccc(-c2cc(-c3ccc(Br)cc3)nc3ncnn23)cc1OC | inconclusive [activator, full curve]
COc1ccc(CCNC(=O)CCN2C(=O)c3cccc4cccc(c34)C2=O)cc1OC | inactive
CC(C)(C#N)c1cc(Cn2cncn2)cc(C(C)(C)C#N)c1 | inactive
COc1ccc2cc(-c3cc(C(=O)OCC(=O)Nc4c(C)n(C)n(-c5ccccc5)c4=O)c4ccccc4n3)ccc2c1 | inconclusive [activator, partial curve, poor fit]
CCOC(=O)C1CCCN(C(=S)Nc2ccc(C)cc2C)C1 (centres undefined) | inactive

SMILES | Potency
O=C(O)COc1ccc(/C=C/c2nc3ccc([N+](=O)[O-])cc3s2)cc1 | active: 11.6 µM
COc1ccc(N2CCCC2)c(NC(=O)COc2ccccc2Cl)c1 | inconclusive [activator, single point]
COc1ccc(S(=O)(=O)N2C3CCC2CC(NC(=O)NC2CCCCC2)C3)cc1 (centres undefined) | inconclusive [activator, partial curve]
Cc1ccc2nc(-c3cccnc3)cc(C(=O)Nc3ccc(F)cc3C)c2c1 | inconclusive [activator, partial curve, poor fit]
CC(C)OP(=O)(OC(C)C)C(NC(=O)c1ccc(Br)cc1)c1ccccc1 (centres undefined) | inconclusive [activator, single point]
O=c1[nH]c(SCc2cccc(Cl)c2)nc2ccccc12 | inconclusive [activator, single point]
COc1cc(NC(=O)c2cccs2)ccc1NC(=O)Cc1ccccc1 | inconclusive [activator, partial curve, poor fit]
COc1ccccc1C(=O)Oc1ccc2c(c1)O/C(=C\c1ccncc1)C2=O | inconclusive [activator, single point]
CCS(=O)(=O)N1CCCC(c2nc(-c3cccc(OC)c3)no2)C1 (centres undefined) | inactive
COc1cc(C2CC(=O)Oc3cc(C)c(Cl)c(C)c32)cc(OC)c1OC (centres undefined) | inconclusive [activator, full curve, poor fit]
COc1ccc(NC(=O)c2nnn(CC(=O)Nc3ccc4c(c3)OCO4)c2N)c(OC)c1 | inactive
COc1ccc2nc(N3CCCC(O)C3)c(C#N)cc2c1 (centres undefined) | inactive
O=C(O)c1ccccc1C(=O)NNc1ccc(Cl)cc1Cl | inconclusive [activator, single point]
CC(OC(=O)Cc1n[nH]c(=O)c2ccccc12)C(=O)Nc1cccc([N+](=O)[O-])c1 (centres undefined) | inactive
Cc1cccc(OCCCN2C(=O)C(=O)c3cc(C)ccc32)c1 | inconclusive [activator, single point]
COc1ccc(/C=N/NC(=O)c2ccc(Br)cc2)cc1Cn1cc(Cl)cn1 | inconclusive [activator, full curve, poor fit]
O=C(NCC(c1cccnc1)N1CCN(c2ccc(F)cc2)CC1)c1ccco1 (centres undefined) | inactive
COc1ccccc1C(c1nnnn1CCc1ccccc1)N1CCN(c2ccccc2)CC1 (centres undefined) | inactive
Nc1nc(N2CCCCC2)c(C=O)c(N2CCCCC2)n1 | inactive
COc1ccccc1C(=O)Nc1nc2cc3c(cc2s1)OCCO3 | inconclusive [activator, single point]
c1ccc2c(c1)oc1c(NCc3ccc4c(c3)OCO4)ncnc12 | inconclusive [activator, partial curve, poor fit]
Cc1ccc(-c2cc(C(=O)N3CCc4ccccc4C3)[nH]n2)cc1C | inactive
O=C(C=CC(=O)OC1CCCCC1)OC1CCCCC1 | inconclusive [activator, partial curve, poor fit]

SMILES | Potency
COc1ccccc1N(CC(=O)Nc1ccc(C)cc1Cl)S(=O)(=O)c1cccs1 | inconclusive [activator, partial curve, poor fit]
COc1ccc(NC(=O)CN(C)C(=O)c2cccc(S(=O)(=O)N3CCN(c4ccccc4)CC3)c2)cc1 | inconclusive [activator, single point]
O=C(Nc1ccccc1N1CCCCC1)c1ccc(Cl)c([N+](=O)[O-])c1 | inconclusive [activator, single point]
COc1ccccc1/C=C1\SC(=O)N(CCC(=O)N2CCCCC2CCO)C1=O (centres undefined) | inactive
COc1ccccc1/C=N/NC(=O)C(=O)Nc1ccccc1OC(F)(F)C(F)F | inconclusive [activator, partial curve, poor fit]
CN(C)S(=O)(=O)Oc1ccsc1C(=O)Nc1ccccc1Cl | inconclusive [activator, partial curve, poor fit]
CCOc1ccc(-c2cc(NC(=O)Cn3ncc4c3-c3ccccc3OC4)on2)cc1OCC | inconclusive [activator, single point]
O=CN(/C=C1\Sc2ccccc2C1=O)Cc1ccccc1 | inconclusive [activator, partial curve]
O=[N+]([O-])c1cc(Cl)ccc1NCCNS(=O)(=O)c1ccccc1 | inactive
CSCC[C@H](NS(=O)(=O)c1ccc(C)cc1)C(=O)N1CCC(C(=O)N[C@@H](Cc2ccc(O)cc2)C(=O)O)CC1 | inconclusive [activator, full curve, poor fit]
COc1ccc(-c2nnc(NC(=O)CSc3ccc(C)cc3)s2)cc1OC | inactive
COc1cc(NC(=O)CSc2nncn2C)c(C)cc1[N+](=O)[O-] | inactive
O=C(OCC(=O)N1CCc2ccccc21)c1ccc(Cl)nc1 | inconclusive [activator, single point]
Cc1ccccc1OCC(=O)NC(=S)Nc1cccc2cc(O)ccc12 | inconclusive [activator, partial curve, poor fit]
COc1ccc(N2CCN(C(CNS(=O)(=O)c3ccc4c(c3)OCCO4)c3ccco3)CC2)cc1 (centres undefined) | inconclusive [activator, partial curve]
CCc1nc(C)cn1S(=O)(=O)c1cc(Cl)c(OC)cc1Cl | inconclusive [activator, single point]
Cc1cccc(NC(=O)C(C)Sc2nc3ccccc3c(=O)n2CCCN2CCOCC2)c1 (centres undefined) | inactive
Cc1cc(C(F)(F)F)n(-c2nc(C(=O)N/N=C/c3ccc(F)cc3)cs2)n1 | inconclusive [activator, single point]
O=C(COc1ccc2c3c(c(=O)oc2c1)CCCC3)NCCN1CCOCC1 | inconclusive [activator, single point]
CC(C)(C)C1CCC(C(=O)Nc2ccccc2N2CCOCC2)CC1 (centres undefined) | inconclusive [activator, partial curve, poor fit]
O=C(NCC1CCCO1)C(c1cccs1)N(Cc1ccccc1Cl)C(=O)c1ccc(-c2ccccc2)[nH]1 (centres undefined) | inconclusive [activator, single point]
COc1cccc(C=NNC(=O)c2ccncc2)c1O | inconclusive [activator, full curve, poor fit]
CCOc1ccc(NC(=O)CN(C)C(=O)c2ccccc2CCc2ccccc2)cc1OCC | inconclusive [activator, single point]
